Binding data for four molecules are collected here from article PMC12713065.

Protein sequences, listed by entry. Tags and fused reporters are not part of them. Lines headed by an entry give the natural chain unless they say otherwise; changes in a name come on top. Residues count along the entry.
UniProt P53396: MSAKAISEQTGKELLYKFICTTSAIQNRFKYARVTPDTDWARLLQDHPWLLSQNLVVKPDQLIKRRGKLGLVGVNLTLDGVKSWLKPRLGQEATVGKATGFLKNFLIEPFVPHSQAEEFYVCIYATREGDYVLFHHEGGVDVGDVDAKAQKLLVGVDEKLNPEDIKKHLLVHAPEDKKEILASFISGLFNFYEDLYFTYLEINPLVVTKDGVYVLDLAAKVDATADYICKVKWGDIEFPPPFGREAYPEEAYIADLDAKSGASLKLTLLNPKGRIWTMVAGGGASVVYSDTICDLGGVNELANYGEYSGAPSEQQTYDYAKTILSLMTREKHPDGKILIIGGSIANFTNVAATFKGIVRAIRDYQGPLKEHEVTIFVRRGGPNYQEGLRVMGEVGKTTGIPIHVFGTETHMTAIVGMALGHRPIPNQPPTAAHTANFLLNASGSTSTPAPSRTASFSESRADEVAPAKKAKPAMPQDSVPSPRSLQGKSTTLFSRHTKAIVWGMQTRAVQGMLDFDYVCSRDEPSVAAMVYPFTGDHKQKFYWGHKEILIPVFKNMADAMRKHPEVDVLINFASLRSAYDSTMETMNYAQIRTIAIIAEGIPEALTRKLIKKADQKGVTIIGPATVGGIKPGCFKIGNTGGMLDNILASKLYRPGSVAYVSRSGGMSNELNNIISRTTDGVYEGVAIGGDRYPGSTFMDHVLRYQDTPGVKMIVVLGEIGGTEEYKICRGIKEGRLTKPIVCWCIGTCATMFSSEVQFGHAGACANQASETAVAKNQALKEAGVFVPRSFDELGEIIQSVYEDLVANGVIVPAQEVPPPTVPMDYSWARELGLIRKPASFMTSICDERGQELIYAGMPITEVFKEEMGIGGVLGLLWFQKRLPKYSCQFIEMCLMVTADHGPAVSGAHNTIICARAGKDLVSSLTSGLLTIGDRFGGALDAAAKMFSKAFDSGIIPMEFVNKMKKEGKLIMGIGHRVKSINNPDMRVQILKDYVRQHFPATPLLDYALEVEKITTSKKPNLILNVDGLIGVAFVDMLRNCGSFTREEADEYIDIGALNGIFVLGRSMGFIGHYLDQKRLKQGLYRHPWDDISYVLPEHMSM
GST-ACLY deletion mutant D3 (CoA ligase domain, residues 631-850): residues 631-850 of P53396
UniProt Q92769: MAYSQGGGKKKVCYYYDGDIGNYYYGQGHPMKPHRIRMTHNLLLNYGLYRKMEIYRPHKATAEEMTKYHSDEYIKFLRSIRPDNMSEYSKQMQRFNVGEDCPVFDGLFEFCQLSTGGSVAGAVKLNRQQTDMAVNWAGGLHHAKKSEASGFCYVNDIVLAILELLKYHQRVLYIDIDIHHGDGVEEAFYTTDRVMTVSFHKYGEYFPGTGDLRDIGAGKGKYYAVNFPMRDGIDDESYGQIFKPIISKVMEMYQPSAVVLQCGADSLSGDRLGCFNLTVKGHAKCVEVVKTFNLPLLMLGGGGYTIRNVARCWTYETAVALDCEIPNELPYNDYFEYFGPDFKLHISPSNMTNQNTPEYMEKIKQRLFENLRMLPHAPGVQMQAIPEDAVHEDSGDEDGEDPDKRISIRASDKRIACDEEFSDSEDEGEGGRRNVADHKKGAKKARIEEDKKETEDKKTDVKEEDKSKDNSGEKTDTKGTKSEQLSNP
UniProt Q13547: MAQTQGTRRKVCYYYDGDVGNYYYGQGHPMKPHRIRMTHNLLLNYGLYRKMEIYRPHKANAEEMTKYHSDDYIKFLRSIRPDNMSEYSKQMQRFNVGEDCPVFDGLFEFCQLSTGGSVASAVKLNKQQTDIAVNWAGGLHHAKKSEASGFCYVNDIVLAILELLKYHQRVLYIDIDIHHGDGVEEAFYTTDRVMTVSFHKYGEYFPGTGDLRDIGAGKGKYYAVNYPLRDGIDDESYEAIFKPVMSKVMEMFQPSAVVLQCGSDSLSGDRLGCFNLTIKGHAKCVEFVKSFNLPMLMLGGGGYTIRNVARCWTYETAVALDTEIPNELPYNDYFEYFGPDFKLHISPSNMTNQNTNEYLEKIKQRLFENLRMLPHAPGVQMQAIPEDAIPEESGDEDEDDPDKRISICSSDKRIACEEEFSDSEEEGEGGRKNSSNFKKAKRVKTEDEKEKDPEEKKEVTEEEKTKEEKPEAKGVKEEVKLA

For test [1], the target named is GST-ACLY deletion mutant D3 (CoA ligase domain, residues 631-850) (UniProt P53396). Put plainly: pull-down; GST-tagged ACLY fragments on glutathione sepharose beads incubated with HA-HDAC2 overexpressed cell lysates at 4 °C for 3 h, washed five times, western blot; only the target purified. Background: A western blot detects proteins with antibodies after separation by electrophoresis.

Test [2] deals with Flag-ACLY (ATP citrate lyase, wild type, transfected) (UniProt P53396). Put plainly: co-IP; HCT8 cells transfected with Flag-tagged ACLY, IP and western blot for HDAC2 or HDAC1.
The target in test [3] is endogenous ACLY (ATP citrate lyase) (human (endogenous in HCT8)) (UniProt P53396). Put plainly: co-IP; endogenous proteins in HCT8 cells, protein A/G beads with the indicated antibody; with or without 5-FU (1 µM for 24 h).
Test [4] shares this target. Put plainly: proximity ligation; Duolink in situ Red kit on fixed, permeabilized cells (HCT8, HCT8R, cells stably expressing ACLY-WT/K978R), confocal microscopy.
Test [5] has as its target ACLY-K978R stably expressed in HCT8/shACLY cells (UniProt P53396). Nature of the test: co-IP; HCT8/shACLY cells stably expressing ACLY-WT or K978R, western blot for endogenous RBM15.
Test [6] shares this target. Put plainly: proximity ligation; Duolink in situ Red kit on fixed, permeabilized cells (HCT8, HCT8R, cells stably expressing ACLY-WT/K978R), confocal microscopy.

These are yes or no findings as the source states them, for the method shown. In cells and extracts the contact can be indirect. Some entries that bind do so weakly or less than the wild type.

On to “HA-HDAC2 (from UniProt Q92769 1-488) (enzyme)”, for which the binding result in test [1] is recorded as “binds”. For “histone deacetylase 2 (HDAC2) in HCT8 / HCT8R cells (from UniProt Q92769 1-488) (enzyme)”, the binding result in test [2], in test [3] and in test [4] was “binds” in each case. Regarding “histone deacetylase 1 (HDAC1) in HCT8 cells (from UniProt Q13547 1-482) (enzyme)”, the binding entry in test [2] was “no binding”.

B1: endogenous RNA-binding protein 15 (RBM15) (protein, UniProt Q96T37 1-977)
chain: MRTAGRDPVPRRSPRWRRAVPLCETSAGRRVTQLRGDDLRRPATMKGKERSPVKAKRSRGGEDSTSRGERSKKLGGSGGSNGSSSGKTDSGGGSRRSLHLDKSSSRGGSREYDTGGGSSSSRLHSYSSPSTKNSSGGGESRSSSRGGGGESRSSGAASSAPGGGDGAEYKTLKISELGSQLSDEAVEDGLFHEFKRFGDVSVKISHLSGSGSGDERVAFVNFRRPEDARAAKHARGRLVLYDRPLKIEAVYVSRRRSRSPLDKDTYPPSASVVGASVGGHRHPPGGGGGQRSLSPGGAALGYRDYRLQQLALGRLPPPPPPPLPRDLERERDYPFYERVRPAYSLEPRVGAGAGAAPFREVDEISPEDDQRANRTLFLGNLDITVTESDLRRAFDRFGVITEVDIKRPSRGQTSTYGFLKFENLDMSHRAKLAMSGKIIIRNPIKIGYGKATPTTRLWVGGLGPWVPLAALAREFDRFGTIRTIDYRKGDSWAYIQYESLDAAHAAWTHMRGFPLGGPDRRLRVDFADTEHRYQQQYLQPLPLTHYELVTDAFGHRAPDPLRGARDRTPPLLYRDRDRDLYPDSDWVPPPPPVRERSTRTAATSVPAYEPLDSLDRRRDGWSLDRDRGDRDLPSSRDQPRKRRLPEESGGRHLDRSPESDRPRKRHCAPSPDRSPELSSSRDRYNSDNDRSSRLLLERPSPIRDRRGSLEKSQGDKRDRKNSASAERDRKHRTTAPTEGKSPLKKEDRSDGSAPSTSTASSKLKSPSQKQDGGTAPVASASPKLCLAWQGMLLLKNSNFPSNMHLLQGDLQVASSLLVEGSTGGKVAQLKITQRLRLDQPKLDEVTRRIKVAGPNGYAILLAVPGSSDSRSSSSSAASDTATSTQRPLRNLVSYLKQKQAAGVISLPVGGNKDKENTGVLHAFPPCEFSQQFLDSPAKALAKSEEDYLVMIIVRGFGFQIGVRYENKKRENLALTLL
On to B1, for which the binding result in test [5] and in test [6] was “binds” throughout.
